# Source: paper PMC4336329 (PLoS ONE, 2015)
# Screen size: about 310,000 compounds; about 14,000 (4.5%) showed an effect of 50% or more. Effects have a minus sign here. The list shows a part of the results.
# Molecular target: human ether-à-go-go-related gene (hERG) potassium channel (human, UniProt Q12809)
# Assay: primary screen, population patch clamp on CHO cells stably expressing hERG
# 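Note: peak tail current of the secondary pulse compared with the same well before compound.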
# human ether-à-go-go-related gene (hERG) potassium channel, sequence (Q12809 whole entry, looked up): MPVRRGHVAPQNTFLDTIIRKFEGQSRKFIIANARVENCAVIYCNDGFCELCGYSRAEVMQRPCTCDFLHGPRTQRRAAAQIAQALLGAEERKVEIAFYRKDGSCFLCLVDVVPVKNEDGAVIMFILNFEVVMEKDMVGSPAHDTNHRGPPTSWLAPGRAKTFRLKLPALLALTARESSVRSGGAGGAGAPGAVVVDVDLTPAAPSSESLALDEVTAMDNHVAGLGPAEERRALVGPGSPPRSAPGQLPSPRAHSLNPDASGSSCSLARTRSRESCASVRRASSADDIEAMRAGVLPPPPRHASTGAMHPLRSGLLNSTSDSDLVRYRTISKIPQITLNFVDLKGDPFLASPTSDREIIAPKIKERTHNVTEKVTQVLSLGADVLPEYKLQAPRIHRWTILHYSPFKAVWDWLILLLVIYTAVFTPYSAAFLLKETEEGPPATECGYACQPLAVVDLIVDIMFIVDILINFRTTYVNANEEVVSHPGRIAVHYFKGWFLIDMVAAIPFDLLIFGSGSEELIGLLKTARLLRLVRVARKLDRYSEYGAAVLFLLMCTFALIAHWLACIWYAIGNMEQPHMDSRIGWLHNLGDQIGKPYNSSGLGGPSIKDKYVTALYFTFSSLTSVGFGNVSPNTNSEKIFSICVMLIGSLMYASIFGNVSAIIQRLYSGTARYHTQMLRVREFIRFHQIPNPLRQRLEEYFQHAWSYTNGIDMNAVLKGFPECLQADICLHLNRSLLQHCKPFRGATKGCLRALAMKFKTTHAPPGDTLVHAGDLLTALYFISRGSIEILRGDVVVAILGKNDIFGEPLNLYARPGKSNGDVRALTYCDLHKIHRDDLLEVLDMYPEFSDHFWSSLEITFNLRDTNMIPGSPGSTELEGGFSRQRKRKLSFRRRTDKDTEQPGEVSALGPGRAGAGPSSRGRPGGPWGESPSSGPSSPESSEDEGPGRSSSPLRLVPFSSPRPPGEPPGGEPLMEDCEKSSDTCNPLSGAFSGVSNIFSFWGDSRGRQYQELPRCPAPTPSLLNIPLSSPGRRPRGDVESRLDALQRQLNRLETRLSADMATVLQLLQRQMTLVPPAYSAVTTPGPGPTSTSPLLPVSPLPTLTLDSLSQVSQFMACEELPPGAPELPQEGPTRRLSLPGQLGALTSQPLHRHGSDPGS
row,Compound,"hERG current change (%, negative = inhibition) at 10uM [%]"
1,Cc1ccc(C)c(OCCC(=O)NNC(=O)c2ccncc2)c1,29.9
2,Cl.N=c1ccn(Cc2ccc([N+](=O)[O-])cc2)cc1,5.42
3,Cc1ccc(C(=O)C2CCN(CC(=O)Nc3ccc4c(c3)OCCO4)CC2)cc1,-2.3
4,COc1ccc(CCNC(=O)CN(Cc2ccc(Cl)cc2)S(C)(=O)=O)cc1,-25.5
5,COc1ccc(C(C(=O)NC2CCCCC2)N(CC2CCCO2)C(=O)CNC(=O)c2ccco2)cc1 (stereo not drawn),-17.3
6,CCCc1nn(C)c2c(=O)[nH]c(-c3cc(S(N)(=O)=O)ccc3OCC)nc12,-7.55
7,COc1cccc(-c2cc(C(F)(F)F)nc(-n3cccn3)n2)c1,-36.9
8,OCC(Br)CBr (stereo not drawn),23
9,CN(C)S(=O)(=O)c1ccc(Oc2ccc(S(=O)(=O)N(C)C)cc2)cc1,-15.7
10,O=C(NCCc1ccccc1)C1CC(=O)N(c2ccc3c(c2)OCCO3)C1 (stereo not drawn),3.8
11,COC(=O)CSc1nc(-c2cccs2)ccc1C#N,1.99
12,CN(C)CCCNC(=O)c1ccc(CN(c2ccccc2)S(C)(=O)=O)cc1,4.06
13,Cc1cccc(NC(=O)CSc2nc3ccccc3nc2N2CCCCC2)c1,-36.5
14,O=C(Cc1cccs1)Nc1nnc(Cc2ccccc2)s1,12.6
15,COc1cc(/C=C2\CCOC2=O)cc(OC)c1OC,23.9
16,COc1ccc(S(=O)(=O)N2CCC(c3nc4ccccc4[nH]3)CC2)cc1,10.3
17,CC[C@@]12C(=O)N(c3ccccc3)C(=O)N1[C@H](c1ccc(Br)cc1)[C@@H]1C(=O)N(C(C)(C)C)C(=O)[C@@H]12,4.22
18,Cc1ncc(CSc2ccc(Cl)cc2)c(CO)c1O,6.34
19,Cc1ccccc1C(=O)NC(=S)NC1CC1,18.7
20,CCOC(=O)C1(CCOC)CCN(C(=O)c2ccccc2-c2cccc(C)c2)CC1,-7.44
21,CSCC(=O)Nc1nc(-c2ccc3c(c2)OCCO3)cs1,-2.09
22,CCOC(=O)C1CCN(C(=O)C2CCN(S(=O)(=O)c3cc(Cl)ccc3Cl)CC2)CC1,-30.1
23,COc1ccccc1NC(=O)Cc1noc(CSc2nnc(C(F)(F)F)n2C)n1,-8.97

row,Compound,"hERG current change (%, negative = inhibition) at 10uM [%]"
1,CCOC(=O)N1CCC(NC(=O)c2cc(-c3ccc(OC)cc3)nc3ccccc23)CC1,19
2,C/C(=N\Nc1ccc(S(=O)(=O)N2CCOCC2)cc1[N+](=O)[O-])C(C)C,7.68
3,COc1ccc(C(=O)Nc2nc3cc4c(cc3s2)OCCO4)c(OC)c1,4.26
4,O=C(CSCC(=O)Nc1nc(-c2ccc3c(c2)OCO3)cs1)Nc1nccs1,16.5
5,CCOC(=O)CNC(=O)c1cc(-c2ccccn2)nc2c(C)c(Cl)ccc12,7.46
6,NNC(=O)c1ccc(Cn2cc(Cl)cn2)o1,15.6
7,O=C(OCCc1cc2ccccc2c(=O)o1)c1cccc(Br)c1,12.5
8,O=C(c1ccc(S(=O)(=O)N2CCOCC2)cc1)N1CCc2ccccc2C1,-4.25
9,CC(C)C(C)(C#N)NC(=O)CN1C(=O)NC2(CCCc3ccccc32)C1=O (stereo not drawn),22.9
10,Cc1cc(C(=O)O)c(CSCc2cc(C(=O)O)oc2C)o1,6.67
11,O=C(C1CCN(C2CCN(Cc3ccc4c(c3)CCO4)CC2)CC1)N1CCOCC1,-26.6
12,O=C(N/N=C/c1cc([N+](=O)[O-])ccc1O)c1cccc(NC(=O)c2cccc(Cl)c2)c1,20.8
13,COC(=O)c1ccccc1NC(=O)c1cc2nc(C3CC3)cc(C(F)(F)F)n2n1,9.42
14,Cc1nc2ccccc2c2oc(C(=O)NCC3COc4ccccc4O3)cc12 (stereo not drawn),-18.1
15,COc1ccccc1NC(=O)C(C)OC(=O)c1ccc(-n2cnnn2)cc1 (stereo not drawn),-87.5
16,COc1cccc(-c2cc(=O)c3cc(NC(=O)c4ccccc4)ccc3[nH]2)c1,-4.52
17,CCN(CC)C(=O)CC(c1ccc(N(C)C)cc1)c1c(O)cc(OC)cc1OC (stereo not drawn),18.7
18,CC1(C)CC(=O)C(/C=N/c2ncccc2C(=O)O)=C(O)C1,0.446
19,Cc1cc(=O)oc(C)c1C(=O)NCCNC(=O)c1c(C)cc(=O)oc1C,3.85
20,COc1ccc(-n2c(SC)nc(O)c(Cc3ccccc3)c2=O)cc1,7.51
21,CC(Nc1ccccc1)c1ccncc1 (stereo not drawn),15.2
22,CCOC(=O)C(C)c1n[nH]c(=O)c2ccccc12 (stereo not drawn),0.668
23,CCCCOC(=O)N1CCOCCOCCOCC1,10.8

row,Compound,"hERG current change (%, negative = inhibition) at 10uM [%]"
1,Cc1cc(/C=N/n2cnnc2)c(C)n1-c1ccc(Cl)cc1,-13.6
2,Cc1ccc(CNC(=O)C(=O)NCCC2=CCCCC2)cc1,17
3,CCN(CC)c1ccc(S(=O)(=O)N2CCOCC2)cc1NC(=O)Cn1nc(C)c([N+](=O)[O-])c1C,-44
4,COc1cccc(N2CCN(C(=S)Nc3cc(C)cc(C)c3)CC2)c1,22.4
5,c1ccc(-c2ccc3ccccc3n2)cc1,-2.62
6,CCO/N=C(\C)c1c(O)c2ccccc2n(C)c1=O,9.54
7,OCCN1C[C@H](O)[C@@H](O)[C@H](O)[C@H]1CO,-2.47
8,C/C=C(\C)C(=O)Nc1cccc(C2=NOC3(C2)C[C@@H](C(N)=O)N(C(=O)c2cc([N+](=O)[O-])cc([N+](=O)[O-])c2C)C3)c1 (stereo partly drawn),-7.16
9,CC(C)Oc1ccccc1C1NC(=O)CCC1[N+](=O)[O-] (stereo not drawn),18
10,O=C(c1ccc(Cl)cc1)c1cnc(Nc2ccccc2)s1,10.7
11,C(=N\n1cnnc1)/c1ccc(OCc2ccccc2)cc1,-10.9
12,CCC(C)NS(=O)(=O)c1ccc(OCC(=O)Nc2ccc(F)cc2F)cc1 (stereo not drawn),-2.06
13,Cc1ccc(S(=O)(=O)NCc2ccccc2)cc1C(=O)N(C)CC(=O)Nc1c(Cl)cccc1Cl,-30.4
14,COc1ccccc1/C=C/C(=O)NCC(=O)N/N=C/c1cccnc1,16.8
15,O=C(NCc1ccccc1)/C(=C/c1cccc([N+](=O)[O-])c1)NC(=O)c1ccco1,-61.2
16,CCC1=C(c2ccc(C)cc2)S(=O)(=O)N=C1N1CCC(C(=O)NCCCN2CCCCC2)CC1,20.5
17,Cc1ccc(NC(=O)N2CCCC2C(=O)Nc2ccc3c(c2)OCO3)cc1 (stereo not drawn),1.95
18,CCOc1ccc(-c2nonc2NC(=O)c2ccco2)cc1,-0.579
19,c1ccc(-c2n[nH]c3c2CCC3)cc1,4.75
20,Cc1cccc(N(CC(=O)N2CCCCCC2)S(C)(=O)=O)c1C,8.62
21,CC(C)C(=O)Nc1ccc(C(=O)N2CCCCCC2)cc1,0.706
22,Cc1cc(C)cc(NC(=O)C(C)N2C(=O)c3ccccc3C2=O)c1 (stereo not drawn),11.1
23,COc1cccc(C2=NOC(C(=O)Nc3cc(C)nn3-c3ccccc3)C2)c1OC (stereo not drawn),-18.2

row,Compound,"hERG current change (%, negative = inhibition) at 10uM [%]"
1,CC1CCCCN1C(=O)Nc1cccc(C(F)(F)F)c1 (stereo not drawn),3.28
2,O=C(CSc1ccccc1C(=O)O)NC1CCCCCC1,1.79
3,CC1CCCCC1NC(=O)CSc1ccc([N+](=O)[O-])cc1 (stereo not drawn),-52.6
4,O=C(NC(NC(=S)Nc1ccc(Cl)cc1)C(Cl)(Cl)Cl)c1ccco1 (stereo not drawn),0.15
5,COc1ccc(NC(=O)COC(=O)c2c3c(nc4ccccc24)CCCC3)cc1,-3.3
6,CC(C)Oc1ccc(C(=O)OCC(=O)NCCNC(=O)COC(=O)c2ccc(OC(C)C)cc2)cc1,1.17
7,CCCOC(=O)Cn1cnc2scc(-c3ccc(C)cc3)c2c1=O,2.31
8,O=C(CNC(=S)N(Cc1ccccc1)Cc1cccnc1)NCCN1CCOCC1,2.12
9,Cc1ccc(CCNC(=O)C2CC(c3ccc(C(F)(F)F)cc3)=NO2)cc1 (stereo not drawn),18
10,COc1cc(/C=C2\SC(=S)N(CCC(=O)Nc3ccccc3O)C2=O)cc(OC)c1OC,12.9
11,Cc1ccn2c(NC(C)(C)C)c(-c3cccs3)nc2c1,-22.8
12,CC(=O)Nc1cc(C(=O)N2CCOCC2)ccc1S(=O)(=O)c1ccc(C)cc1,15.3
13,CNC(=S)NNC(=O)c1sccc1C,2.64
14,COc1cccc(OC)c1C(=O)Nc1nc2ccc(S(C)(=O)=O)cc2s1,3.36
15,CCOc1ccccc1Nc1cc(C)nc2nnnn12,12.9
16,O=P(C(Cl)Cl)(N1CCOCC1)N1CCOCC1,25
17,COc1ccc(NC(=O)Oc2cc(C)ccc2C(C)C)cc1,10.5
18,Cc1nc2ccccc2cc1C(=O)N(C)Cc1ccccc1,14.2
19,CCc1ccc2nc3sc(C(=O)O)cc3cc2c1,40.9
20,O=C(NCCCN1CCCC1=O)c1cccs1,-4.09
21,COc1cc(NC(C)=O)ccc1-c1cc2ccccc2oc1=O,-7.81
